Read-outs that look alike come from different tables or passages of the source.
Legend:
[1] = OST placebo, N=74
From the text: Analysis set for safety: Safety Set included all subjects who received at least 1 dose of study drug.

[2] = system: acute uncomplicated seasonal influenza A; test: Clinical study: time to resolution of the 7 primary influenza symptoms (Flu-iiQ); conditions: for Hazard ratio Estimate, time to resolution of 7 primary influenza symptoms / Time to Resolution of Influenza Symptoms Acceleration factor (95% CI): versus placebo, Full Analysis Set; for Time to Resolution of Influenza Symptoms Acceleration factor (95% CI): accelerated failure time model

Compound: O=C(O)[C@H]1C2CCC(CC2)[C@@H]1Nc1nc(-c2c[nH]c3ncc(F)cc23)ncc1F [Compound (1), Pimodivir]
- TEAE: Influenza like illness ([1]; 300 mg): 0 n (%)
- TEAE: Influenza like illness ([1]; 600 mg): 0 n (%)
- reduction in time to resolution of influenza symptoms versus placebo ([2]; Compound (1) 600 mg bid, not statistically significant): 13%
- Hazard ratio Estimate, time to resolution of 7 primary influenza symptoms ([2]; Cmpd (1) 300 mg + OST placebo): 0.84
- Hazard ratio Estimate, time to resolution of 7 primary influenza symptoms ([2]; Cmpd (1) 600 mg + OST placebo): 1.17
- Time to Resolution of Influenza Symptoms Acceleration factor (95% CI) ([2]; Compound (1) 300 mg bid): 1.07 (0.76; 1.52)
- Time to Resolution of Influenza Symptoms Acceleration factor (95% CI) ([2]; Compound (1) 300 mg bid, listed as Cmpd (1)): 1.07
- Time to Resolution of Influenza Symptoms Acceleration factor (95% CI) ([2]; Compound (1) 600 mg bid): 0.87 (0.62; 1.23)
- Time to Resolution of Influenza Symptoms Acceleration factor (95% CI) ([2]; Compound (1) 600 mg bid, listed as Cmpd (1)): 0.87
